Test results as given in PMC4336329 (PLoS ONE, 2015).
In all, about 310,000 compounds went through this assay and about 2,200 (0.71%) showed an effect of 50% or more. The effect is printed as a negative number. The list shows a part of the results.

molecular target: human ether-à-go-go-related gene (hERG) potassium channel (human, UniProt Q12809); assay: primary screen, population patch clamp on CHO cells stably expressing hERG
Sequence (Q12809 whole entry, looked up): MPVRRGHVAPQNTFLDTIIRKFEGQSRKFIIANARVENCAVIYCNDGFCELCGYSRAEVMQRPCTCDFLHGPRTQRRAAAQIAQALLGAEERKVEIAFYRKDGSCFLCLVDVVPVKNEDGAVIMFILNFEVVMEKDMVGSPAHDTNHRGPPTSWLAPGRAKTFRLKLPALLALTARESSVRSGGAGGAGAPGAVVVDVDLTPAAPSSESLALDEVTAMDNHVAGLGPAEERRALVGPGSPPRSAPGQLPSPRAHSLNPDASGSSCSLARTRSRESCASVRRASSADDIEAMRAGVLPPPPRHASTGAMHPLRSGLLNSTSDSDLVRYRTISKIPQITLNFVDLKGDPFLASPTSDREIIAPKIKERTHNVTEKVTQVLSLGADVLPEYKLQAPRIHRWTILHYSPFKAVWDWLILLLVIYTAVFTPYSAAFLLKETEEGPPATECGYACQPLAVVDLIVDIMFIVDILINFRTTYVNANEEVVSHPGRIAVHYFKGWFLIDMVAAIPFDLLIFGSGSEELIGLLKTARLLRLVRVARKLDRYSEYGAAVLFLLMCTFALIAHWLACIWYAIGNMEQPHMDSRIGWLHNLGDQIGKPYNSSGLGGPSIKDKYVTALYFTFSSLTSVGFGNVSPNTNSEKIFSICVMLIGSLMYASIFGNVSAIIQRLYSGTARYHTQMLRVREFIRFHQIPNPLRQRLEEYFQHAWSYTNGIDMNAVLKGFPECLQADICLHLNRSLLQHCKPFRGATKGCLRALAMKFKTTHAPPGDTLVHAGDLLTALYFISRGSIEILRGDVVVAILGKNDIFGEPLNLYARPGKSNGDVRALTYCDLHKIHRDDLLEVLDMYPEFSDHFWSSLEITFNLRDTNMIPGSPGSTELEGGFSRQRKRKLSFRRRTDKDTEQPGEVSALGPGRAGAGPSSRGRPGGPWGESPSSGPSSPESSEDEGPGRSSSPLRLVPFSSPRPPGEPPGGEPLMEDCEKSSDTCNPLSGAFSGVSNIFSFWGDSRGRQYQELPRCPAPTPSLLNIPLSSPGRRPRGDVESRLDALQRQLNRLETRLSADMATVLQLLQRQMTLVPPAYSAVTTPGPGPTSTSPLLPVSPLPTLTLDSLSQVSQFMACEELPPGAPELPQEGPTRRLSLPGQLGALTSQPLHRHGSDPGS

Row | Compound | hERG current change (%, negative = inhibition) at 1uM [%]
1 | Cn1c(C(=O)NCc2ccc3c(c2)OCO3)cc2sccc21 | 8.55
2 | CC(C)CCNC(=O)c1cc2c(=O)n3ccccc3nc2s1 | 11.4
3 | CC1CCN(C(=O)c2nc[nH]c2C(=O)N2CCc3ccccc3C2)CC1 | 12.6
4 | CC(C)C(OC(=O)CN1C(=O)c2ccccc2C1=O)C(=O)NC1CCCCC1 (centres unmarked) | 14.9
5 | O=C(CCc1ccccc1)Nc1ccnn1C1CCN(Cc2ccc(OCCO)cc2)CC1 | -9.11
6 | COc1ccc(C([O-])=Nc2ccc[n+](-c3nc4ccccc4nc3NS(=O)(=O)c3ccccc3)c2)cc1 | 11.9
7 | COc1ccc(CCn2c(C)cc(C(=O)CSc3nnc(N)s3)c2C)cc1 | 5.57
8 | CC(C)c1nc2c(c(=O)c3ccccc3n2C)c(=O)n1-c1ccc(F)cc1 | 1.11
9 | CC(=O)NCCn1c(SCC(=O)NCCC2=CCCCC2)nc2ccccc2c1=O | -11.4
10 | Cc1nc2cc(NC(=O)NCc3ccco3)ccc2o1 | 16.3
11 | Cc1ccc(C)c(NC(=S)N(C)CCc2ccccn2)c1 | 11.5
12 | CC(=O)Nc1ccc(C(=O)OCC(=O)c2ccc(C)c([N+](=O)[O-])c2)cc1 | 9.37
13 | O=C(Nc1ccc2ccccc2c1)/C(=C/c1cccc(Br)c1)NC(=O)c1ccco1 | -17.8
14 | O=C(O)c1ccc(-n2nnnc2SCc2ccccc2Br)cc1 | 12
15 | CCOC(=O)C1CCCN(C(=O)c2cc(S(=O)(=O)N3CCCCC3)c[nH]2)C1 (centres unmarked) | 9
16 | CCOc1cc(C(C(=O)NCC2CCCO2)N(C(=O)Cn2nnc3ccccc32)c2ccc(C(C)=O)cc2)ccc1O (centres unmarked) | 4.08
17 | COc1ccc(-n2c(COc3ccc(C)cc3)nnc2SCC(N)=O)cc1 | 5.37
18 | CCN(CC)S(=O)(=O)c1cccc(NC(=O)Nc2cccc(C(F)(F)F)c2)c1 | -8.7
19 | CCc1ccccc1Nc1ncnc2ccccc12.Cl | 16.9
20 | Cc1ccc(C)c(NC(=O)CN(C)C(=O)c2ccc(-c3ccc(Cl)cc3)o2)c1 | 10.1
21 | COc1cccc2c1OC[C@@H](CO)[C@H]2N(C)C(=O)Nc1ccc(Cl)cc1Cl | -3.21
22 | O=C(NCc1ccccc1Cl)c1cc([N+](=O)[O-])ccc1Cl | 7.84
23 | O=C(NCc1ccccc1Cl)c1ccc(-c2ccccc2)cc1 | 7.76
